According to the supplement of paper PMC3334620:
In all, about 33,000 sequences were measured (“E-score (-0.5 to 0.5)”: median about -0.017, highest 2% from about 0.3 on). Some of the results follow.

target: T1, Sut1 (UniProt P53032); assay: PBM E-score (8-mer binding enrichment) (E-score (-0.5 to 0.5)); higher = stronger / more preferred TF binding; most listed sequences are background and not binding sites; settings: protein concentration: 200 nM; construct: GST-full length
T1 sequence: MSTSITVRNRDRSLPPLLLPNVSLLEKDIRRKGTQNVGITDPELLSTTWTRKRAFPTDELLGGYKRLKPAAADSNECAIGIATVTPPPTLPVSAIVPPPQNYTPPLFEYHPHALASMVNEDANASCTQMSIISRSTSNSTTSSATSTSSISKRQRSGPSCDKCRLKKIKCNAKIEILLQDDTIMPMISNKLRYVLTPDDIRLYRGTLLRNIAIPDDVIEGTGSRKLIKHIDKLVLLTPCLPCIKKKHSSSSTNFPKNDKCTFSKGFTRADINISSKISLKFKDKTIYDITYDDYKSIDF
In short: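 Yeast transcription factors carrying a GST tag, as full-length proteins or DNA-binding domains, were produced by PURExpress in vitro transcription/translation. About 100-200 nM protein was applied to universal all-10-mer Agilent arrays, double-stranded by primer extension on fresh or once-stripped slides. Bound protein was detected with fluorescent anti-GST, and scans were normalised with masliner. The Universal PBM Analysis Suite gave each ungapped eight-base word, pooled with its reverse complement, an E-score, a modified Wilcoxon-Mann-Whitney statistic.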

Sequence | PBM E-score
ACAGCAAC | 0.111
GTTTCCTA | 0.0631
ATCCTAAG | -0.175
ACTTCAGC | -0.142
GATAGGAA | -0.0386
GGATTACC | 0.0282
TGTGACAA | 0.0467
CTTACCCA | -0.0173
TTCCAGAA | 0.139
AGGATCAG | -0.268
GAGATACA | 0.255
CTGCAATA | 0.0791
AGAACGCT | -0.0146
GACCTACA | 0.0326
AAGAAATT | 0.313
CCAATACG | -0.033
GACACGGA | 0.296
AAGCGTGG | -0.0235
GCTCTTAC | 0.132
CCGCGGTA | 0.0295
CAACGAGA | -0.001
TGCTCAAA | 0.0837
GAGGGTCA | -0.207
GTACATGA | 0.103
CAACGAGG | -0.11

Sequence | PBM E-score
CATAAGCC | -0.0821
CACCACGC | -0.276
TCTAGTCA | 0.0751
CTGGCATA | -0.042
CGTATGCA | -0.0505
AGAGAGGC | -0.143
AAAAGAGT | 0.0645
GAAAGCTC | -0.0607
CAGCCAGA | -0.0176
AACATGCT | 0.0528
GTAACGAA | -0.00198
ACCGATTG | 0.147
TAGACAGA | 0.134
CGGGGCCC | -0.106
AATTGTCA | 0.121
CAATATTG | 0.051
AGATTCAA | 0.219
CCCATACG | -0.204
ACAGTTGG | -0.132
AAGCATAG | -0.196
AGAGTTAC | -0.117
CATTATAA | 0.126
GCCTAGTA | -0.0758
GATGGAAC | -0.0852
AATGTTTG | 0.175

Sequence | PBM E-score
AATGCTCT | 0.0869
CCCTCCTA | -0.207
GCAAATAC | 0.0477
GGGGTCGA | -0.135
ATTATCGA | 0.021
CATCATAC | 0.253
GACTGAGC | -0.342
ACGAAGCA | 0.0787
ATATCGAG | 0.0296
TCAAGCGA | -0.113
CGCGACGC | -0.169
CGTACTCA | 0.0162
CCGGCGCA | 0.132
CAAGACAC | -0.00016
GATTACAA | 0.156
GGGACAGA | -0.387
ATTGGTCG | 0.0598
AGCCGGTA | -0.0773
CGCTGTGA | -0.225
CCCCCCAG | -0.451
GGCTTGAC | -0.0111
ACAATGAA | 0.13
ATGTGTAG | 0.0251
GCGATCGC | 0.0478
GGAGGTAA | 0.0337

Sequence | PBM E-score
CTCGTGTA | -0.176
AGAGCTCA | -0.109
ACCTCATA | -0.0352
CCTCGCGC | -0.262
AGTGCAAT | -0.0563
ATCTATGA | 0.118
AGGCCCCG | -0.292
ATCTAGAG | -0.0117
CGATTTGC | 0.0539
CCTAGACA | -0.165
ATACCTGA | -0.0244
CTCATAAA | 0.117
CGGTCCTC | -0.0479
CAGGTGAC | -0.157
GGTCATGA | -0.112
CGAAACTA | 0.121
ACATCCCG | 0.0895
CTTGCGTA | 0.106
AGACGCGA | 0.0113
AAGTACTG | -0.114
GTGCCCGA | -0.183
ACACGCCG | -0.0829
AAACACAA | 0.197
AGCAAGAC | -0.149
AGAGTGAG | 0.0836

Sequence | PBM E-score
CACCGACA | -0.0992
AAAAGTAG | 0.0841
AACGGGTA | 0.0141
CGGAGGAC | 0.102
ACTTGTCA | 0.0978
CGTCCAAA | 0.144
AACTTGTG | 0.0746
AGAATCTA | 0.0902
ATGGGAAG | -0.0793
AAACGATA | 0.027
ATTTTAGG | 0.113
CACACCTC | -0.169
CCAATAGC | -0.0939
CTGGACAG | -0.205
ACGTTCCC | -0.164
ATTAATTG | 0.187
ACAGCATC | -0.0972
AATGAGGA | -0.0127
ATAGCGTA | -0.0334
CTTGCAAG | 0.0222
CTGACGAC | -0.199
TACCCTGA | -0.244
ATATGTTA | 0.207
ATTGTAAC | 0.0804
ACATGACG | 0.00405

Sequence | PBM E-score
CCACGAAC | 0.093
GCAGGTCC | 0.0446
CCAGGACG | -0.223
CACCACTA | 0.116
GTAGATAC | 0.0115
CAGGACCC | -0.231
CGCAGTGA | -0.0592
TCAAAGGA | -0.0285
ATGTTATG | 0.211
ACCACAGT | -0.0605
CGCAATGC | -0.19
CTTAGTTC | 0.0859
ACCGTTCT | -0.0194
GAATCTAC | -0.104
GAGTGCAA | 0.144
AAGACGGC | -0.0607
CCCCTAGG | -0.174
CGAGAACC | -0.0514
GACAGTAC | 0.0792
GAGAGCAC | -0.0549
AAGCTGAG | -0.0853
CCAGACTC | -0.166
TATAGTCA | 0.135
GTATGGTA | -0.0717
CTAAGAGA | 0.046

Sequence | PBM E-score
ACTAAAAG | 0.214
GACACGCA | -0.0106
GCTAGATA | -0.0727
AGATCGCG | -0.0343
GCAGAAAC | -0.0505
AAGTTACG | 0.179
GAGACCCC | -0.146
ATTTCCTG | 0.169
GGACAGCA | -0.0931
CTTTTGCC | 0.0834
CGAATGAA | 0.0181
AGGCAAGC | -0.135
ATATACTG | 0.179
ATTTTTTC | 0.262
CATGATAC | 0.119
CGTCCCTA | -0.135
CTGGCTGC | -0.214
CGAGATTC | 0.0663
CCTGGTCG | -0.228
CCAAGTAG | -0.189
AAAGTGTC | 0.123
ACTATGGA | 0.0185
